The assay addresses T1, human Flag-tagged soluble TWEAK (amino acids 106-249) (human, UniProt O43508 106-249).
T1 construct: TWEAK, human, soluble form, amino acids 106-249 of the 249 amino acid protein
T1 sequence (looked up): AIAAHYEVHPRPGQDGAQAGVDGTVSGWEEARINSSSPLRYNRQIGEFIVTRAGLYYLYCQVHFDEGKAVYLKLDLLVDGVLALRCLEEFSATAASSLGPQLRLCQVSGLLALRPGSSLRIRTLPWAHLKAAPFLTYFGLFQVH
Description: ELISA; receptor interaction ELISA (competition): human Fn14:Fc coated at 1 ug/ml in PBS; Flag-tagged soluble TWEAK 2.5 ng/ml pre-incubated 2 h at room temperature with different concentrations of anti-TWEAK antibody or hybridoma supernatant; detection with anti-FLAG-HRP. The conditions noted are these: both partners purified.

B1: human Fn14:Fc (extracellular domain of human Fn14, […], fused to Fc portion of human IgG1) (Fc fusion)
chain: not shown
notes: signal peptide in the construct; Fn14 (TWEAK receptor), human, extracellular domain, […]; also called TWEAKR; TNFRSF12A
As to B1, the binding result is listed as “binds”.

These data come from paper PMC3648529 (PLoS ONE, 2013).
